Results reported in PMC10112805.
No constants are given. Whether binding was seen depends on the method and setting. Binding seen in cells or lysates may run through a third protein. Some entries that bind do so weakly or less than the wild type. Tags and fused reporters may be left off the sequences shown.

Chains of the proteins cited; added tags and fusions are not shown.
UniProt Q86WV6: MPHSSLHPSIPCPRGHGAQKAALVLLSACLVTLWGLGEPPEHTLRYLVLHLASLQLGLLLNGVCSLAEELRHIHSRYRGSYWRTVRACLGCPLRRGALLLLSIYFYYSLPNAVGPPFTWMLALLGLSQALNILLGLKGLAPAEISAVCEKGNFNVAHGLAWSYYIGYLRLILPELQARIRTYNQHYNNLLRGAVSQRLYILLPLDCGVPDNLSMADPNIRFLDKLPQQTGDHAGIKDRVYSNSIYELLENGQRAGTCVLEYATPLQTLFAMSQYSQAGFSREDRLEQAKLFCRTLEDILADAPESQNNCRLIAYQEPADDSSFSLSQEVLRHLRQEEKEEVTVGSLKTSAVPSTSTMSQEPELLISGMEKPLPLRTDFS

Target: T1, SELENOK-GFP (selenoprotein K with a GFP tag) (human) (UniProt Q9Y6D0)
T1 sequence: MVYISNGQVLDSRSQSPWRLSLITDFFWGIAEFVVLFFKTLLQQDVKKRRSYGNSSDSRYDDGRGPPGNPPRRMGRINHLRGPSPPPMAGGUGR
Experiment: co-IP; HEK 293T cells co-transfected with the tagged plasmids; lysed in IP lysis buffer (50 mM Tris-HCl pH 7.4, 50 mM EDTA, 150 mM NaCl, 1% NP-40); immunoprecipitation with anti-MYC, anti-GFP or anti-HA and Protein A/G PLUS-Agarose overnight at 4 °C; five washes; immunoblot

Substance: STING-HA (stimulator-of-interferon gene with an HA tag) (from UniProt Q86WV6 1-379)
- binding: binds
